Values marked as one replicate rest on one cluster of the flow cell; about a third of the high ones do not repeat.

From the supplement of paper PMC10126150 come the findings set out here.
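Further: ATP exposure 15 min at 22 °C before imaging.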

This series relates to ATP. Nature of the series: switch fluorescence ratio, 500 uM ATP over buffer (Cy3 cluster intensity, sum of 5 cycles each) (fold (ratio)); higher = stronger signal-on switching upon ATP binding; sequences stand for … in TCGTCGGCAGCGTCAGATGTGTATAAGAGACAGTTTTTTTTTTTTTTTTTTTTTTTTT…TC. As to conditions: aptamer strand: ATP DNA aptamer (quencher-CACCTGGGGGAGTATTGCGGAGGAAGG + anchor), 100 nM annealed; ATP concentration: 500 uM; one replicate. The method, boiled down:
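The quencher-labelled ATP aptamer, at 100 nM, was annealed to Cy3-labelled switching-strand clusters on a modified Illumina MiSeq flow-cell. The clusters were imaged in selection buffer, then after 15 min with 500 uM ATP at 22 °C, and this buffer/ATP cycle ran five times with NaOH stripping and re-annealing between runs. Per-cluster fluorescence ratios, summed target-cycle over summed buffer-cycle Cy3 intensity, were averaged per switch-domain sequence. Clusters outside 100-1000 RFU were excluded.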
Turning to CCATTAGAGA, the switch fluorescence ratio amounted to 0.997.
Regarding AAGCCTTGTG, the switch fluorescence ratio is 1.01.
Take GAGTACGCGT: the switch fluorescence ratio was found to be 1.04.
In the case of TCGGTCAATC, the switch fluorescence ratio turned out to be 1.79.
As for GATAACCGAA, the switch fluorescence ratio came out at 1.04.
As for TTGCAGGGC, the figure is 1.08; as for ATTTTAGAGA, 0.991; as for CAGGGAAAA, 1.05.
Take TGCATTCGAA: the switch fluorescence ratio came out at 1.02.
Next, ATATCCTCAA: 1.05.
As for TTACGACGTC, the figure is 1.05; as for GTCGGGCTCC, 0.988; as for GGCCCAAAAT, 1.01.
As for GAAAACGTTA, the figure is 1.03; as for GACCCTAGGC, 0.979; as for TAAGTTAGGA, 0.976.
For the sequence AGGTCTACGG, the switch fluorescence ratio was found to be 1.02.
Next, CCACAAAGCT: 1.31; GCGTATAACA: 0.98; CGTGGCTCAG: 0.975.
For the sequence TTAACGTGGT, the switch fluorescence ratio is 1.05.
As for ATGGCTCCGT, the figure is 0.99; as for CTTCACGTAG, 1.06; as for ACGAATCAAA, 1.03.
Take GTTCGAAAGT: the switch fluorescence ratio was 1.01.
For GGCGCTTATG, the switch fluorescence ratio worked out at 1.03.
As for CGGACTCAGG, the figure is 1.12.
Consider CTATGTAATC, for which the switch fluorescence ratio amounted to 1.46.
Next, TGTAATAGAG: 1.02; AACACGTC: 1.03; TAAACGAAAT: 1.02.
Next, CAGAGGTTCG: 1.01; CCAAGATGTT: 0.968.
For TGTCACCAGG, the switch fluorescence ratio came out at 2.58.
As for GGCCCCGCCC, the figure is 0.991; as for CAAAGAGGGT, 1.01; as for TGTACCCAGC, 1.02.
TAAGCCCCGT: the switch fluorescence ratio stood at 1.05.
TGTGGGACCA: the switch fluorescence ratio was 1.01.
As for TCCAAGTTTT, the figure is 1.01; as for AACGCCGGG, 1.07; as for ACAGATGCG, 0.997.
For GTTGGGCATC, the switch fluorescence ratio came to 0.993.
In the case of ATGGCTCGGC, the switch fluorescence ratio was found to be 0.953.
For the sequence AGCTGAGCGT, the switch fluorescence ratio came to 1.05.
With CCCACGGCCG, the switch fluorescence ratio stood at 1.02.
For the sequence TTGAAACTAA, the switch fluorescence ratio came out at 1.07.
As for TAAGCGCTTG, the figure is 1.03; as for TAAACAAGT, 0.994; as for CTGTGGGAA, 0.987.
As for ACCTCGCTGA, the figure is 1.18.
Next, TTCGCTACAG: 1.07; GCTTTTCGTT: 0.981; AGGGCCCAGG: 1.04.
Consider TGACTTGGTT, for which the switch fluorescence ratio worked out at 1.07.
Next, TGATTAGGAG: 1.01.
Regarding CGAAAAGATT, the switch fluorescence ratio worked out at 1.03.
Next, TAGGGCTCGT: 0.983; ATATAGGACG: 1.01.
Next, TCCAATGTTG: 1.01.
As for AATCATGAAA, the figure is 1; as for TTAGTTGGCG, 1.06.
Turning to GGAGATTGTA, the switch fluorescence ratio is 1.02.
With GCTAGGAGGG, the switch fluorescence ratio was found to be 0.963.
Take GTCTGCAGCG: the switch fluorescence ratio turned out to be 1.01.
As for AGGCTATCGG, the figure is 0.977; as for CATAATACGA, 1.19.
For CGGATGAGCA, the switch fluorescence ratio worked out at 1.02.
As for GATTTCATAT, the figure is 1.02; as for AGGCACACCA, 1.24.
As for ATTTTATTTC, the figure is 1; as for TATTCTAGAT, 1.
As for GCGTGTAACA, the switch fluorescence ratio worked out at 1.02.
Next, AATTATAGCA: 0.992.
Next, TGGGTACCTT: 1.06; TATAGCTGGT: 1.01; GACATGCAAT: 1.6.
As to ATCATGTTGA, the switch fluorescence ratio came out at 1.02.
As for GGGCTTACCA, the figure is 0.996; as for CAACCTTCT, 2.68.
Next, TCCGCTGGTA: 1.18; TTTTGATTCG: 1.03; CGGCACCCAT: 1.03.
In the case of GCTATAGCGG, the switch fluorescence ratio came out at 0.996.
Take TGTTTCCTAG: the switch fluorescence ratio is 1.04.
As for TGCCTATCTA, the figure is 1.02; as for GCTCGAGCCA, 1.01.
Consider GGTTCATTCA, for which the switch fluorescence ratio turned out to be 0.999.
As to GGATATGGAG, the switch fluorescence ratio turned out to be 1.05.
Next, ATAAAGCCTC: 0.979; GGGTAGTGC: 0.975; TAGGTAGAGC: 1.05.
Consider TCTCGAGGTA, for which the switch fluorescence ratio came out at 1.01.
Next, TTAATCGTTT: 1.07.
Regarding CCTATTTTCA, the switch fluorescence ratio turned out to be 1.02.
Next, CAGTTCGTT: 0.966; ACCAGTTAGC: 1.
For the sequence TTGCCCGGGG, the switch fluorescence ratio was 1.11.
Next, GAGATCGTTG: 1.04; ATCGCATCTG: 1.01; CATCTTGGCG: 0.962.
As for ACTGCAGTGT, the switch fluorescence ratio came out at 0.983.
As for TGGTCCTAAG, the figure is 0.982; as for CAGTTAGGT, 1.05.
As to AGGGAACGTG, the switch fluorescence ratio came to 1.02.
As for TAGGCTAGCC, the figure is 1.04; as for CTTCTCTTGG, 1.
As for GTCTTCTGCG, the figure is 1.04; as for CAGACTGTCG, 1.01.
Next, ACCCGCGCAT: 2.38.
Take TTTCATTGC: the switch fluorescence ratio was 0.979.
As for GCGAGGCAAG, the figure is 1.39; as for TCAAACTTT, 1.03.
With GCCGATTATG, the switch fluorescence ratio is 1.03.
Take GATTTTAGGC: the switch fluorescence ratio came to 0.958.
Turning to TAATACCTGT, the switch fluorescence ratio turned out to be 1.04.
Next, ATGACCTCTG: 0.989; CCAGGCGTTC: 1.1; GGTGGACGAC: 0.985.
Next, AGGCTTTCGG: 0.999.
